Among all 310,000 compounds or so, about 2,200 (0.71%) showed an effect of 50% or more. Effects have a minus sign here. The list shows a part of the results.
Biological target: human ether-à-go-go-related gene (hERG) potassium channel (human, UniProt Q12809)
Assay: primary screen, population patch clamp on CHO cells stably expressing hERG

human ether-à-go-go-related gene (hERG) potassium channel, sequence (Q12809 whole entry, looked up): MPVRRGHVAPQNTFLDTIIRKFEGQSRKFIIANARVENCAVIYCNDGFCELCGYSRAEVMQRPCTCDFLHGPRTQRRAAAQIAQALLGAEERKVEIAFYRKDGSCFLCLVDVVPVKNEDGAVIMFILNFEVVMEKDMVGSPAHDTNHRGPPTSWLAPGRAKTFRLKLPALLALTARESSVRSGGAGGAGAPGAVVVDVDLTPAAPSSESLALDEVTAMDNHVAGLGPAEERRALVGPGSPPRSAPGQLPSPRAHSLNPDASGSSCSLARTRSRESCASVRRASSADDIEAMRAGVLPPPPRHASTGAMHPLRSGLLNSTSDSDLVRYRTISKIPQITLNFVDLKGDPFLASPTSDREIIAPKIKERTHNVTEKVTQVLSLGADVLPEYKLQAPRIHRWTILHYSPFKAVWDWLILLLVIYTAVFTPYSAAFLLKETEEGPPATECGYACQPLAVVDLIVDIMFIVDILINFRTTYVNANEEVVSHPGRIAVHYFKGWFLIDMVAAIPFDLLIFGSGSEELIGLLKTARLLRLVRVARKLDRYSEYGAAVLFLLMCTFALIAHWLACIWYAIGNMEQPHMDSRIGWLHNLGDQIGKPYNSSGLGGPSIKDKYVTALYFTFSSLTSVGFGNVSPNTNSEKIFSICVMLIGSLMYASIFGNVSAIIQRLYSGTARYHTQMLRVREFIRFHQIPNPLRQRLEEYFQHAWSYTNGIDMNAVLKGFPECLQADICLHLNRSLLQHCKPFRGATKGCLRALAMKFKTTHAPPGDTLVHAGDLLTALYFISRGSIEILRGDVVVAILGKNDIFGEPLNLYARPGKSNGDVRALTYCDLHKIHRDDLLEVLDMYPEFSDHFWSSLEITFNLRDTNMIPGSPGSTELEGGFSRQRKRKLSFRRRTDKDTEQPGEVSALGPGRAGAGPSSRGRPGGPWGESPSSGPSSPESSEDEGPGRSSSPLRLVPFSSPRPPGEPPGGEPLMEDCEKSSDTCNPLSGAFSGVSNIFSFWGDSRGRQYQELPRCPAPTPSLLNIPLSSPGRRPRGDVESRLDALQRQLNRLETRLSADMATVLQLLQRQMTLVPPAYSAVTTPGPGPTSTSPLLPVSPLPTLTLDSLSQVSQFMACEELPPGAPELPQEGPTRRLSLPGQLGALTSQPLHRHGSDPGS

Compound | hERG current change (%, negative = inhibition) at 1uM
Cc1cc(Cl)ccc1OCC(=O)O | 0.226%
Cc1ccc(N(C(=O)c2csnn2)C(C(=O)NC2CCCC2)c2ccccn2)c(C)c1 (stereo not drawn) | 15.8%
CCCn1nnc(NC(=O)c2ccc(-c3cc(Cl)ccc3Cl)o2)n1 | -0.826%
COc1ccc(NC(=O)Nc2ccc(OCC(=O)N3CCOCC3)cc2)cc1OC | 3.2%
Cn1c2c(c(=O)n(C)c1=O)C1c3cc(Cl)ccc3OCC1CO2 (stereo not drawn) | 2.85%
CCCCN1C(=O)C2NN=C(C(=O)OC)C2C1=O (stereo not drawn) | 4.55%
CCn1cc(CN2CCN(Cc3ccccc3)C(CCO)C2)c2ccccc21 (stereo not drawn) | 5.37%
COc1ccc(C)cc1NC(=O)c1ccccc1NS(=O)(=O)c1ccc(Cl)s1 | 13.3%
COc1cc(/C=C(\NC(C)=O)C(=O)Nc2ccccc2C)ccc1OC(C)=O | 10.8%
Cc1ccc(N2C(=O)CC(Cn3nc(C)cc3C)C2=O)cc1 (stereo not drawn) | 12.5%
CCC(=O)N1CCN(CCN=CC2=C(O)CC(c3ccc(OC)cc3)CC2=O)CC1 (stereo not drawn) | 8.12%
CCOC(=O)c1c(-c2cccs2)csc1NC(=O)CN1CCOCC1 | 7.93%
Cc1ccc(Oc2nc3ccccn3c(=O)c2/C=C(\C#N)C(=O)Nc2c(C)n(C)n(-c3ccccc3)c2=O)cc1 | 2.15%
O=C(c1ccccc1)c1ccc(OCC(O)CNC2CCCc3ccccc32)cc1 (stereo not drawn) | 8.42%
Nn1cnc2sc3c(c2c1=O)CCC3 | 3.47%
CC(=O)Nc1cccc(C(=O)N2CCN(S(=O)(=O)c3ccc4ccccc4c3)CC2)c1 | 8.17%
Cn1c(CC(=O)Nc2ccccc2F)nnc1SCC(=O)NC1CCCCC1 | 7.95%
COc1ccccc1CNC(=O)CCS(=O)(=O)c1ccc(Cl)cc1 | -1.52%
c1ccc2cc(OCCN3CCCC3)ccc2c1 | 0.252%
O=C(CSc1nnc(CNC(=O)c2c(F)cccc2Cl)o1)NC1CCCCC1 | 16.8%
O=C(O)CCC(=O)N(Cc1cccnc1)Cc1cccc(F)c1 | 14.5%
CCOc1cc(/C=C2\N=C(SCC)SC2=O)cc([N+](=O)[O-])c1OC(C)=O | 7.85%

Compound | hERG current change (%, negative = inhibition) at 1uM
CCOc1cc(CNCCc2ccc(S(N)(=O)=O)cc2)ccc1OCC(=O)NC(C)(C)C.Cl | 7.08%
COc1ccc(CCN(C)Cc2nc(-c3cnccn3)no2)cc1OC | 12%
COc1cc(-c2cc(C(=O)OCC(=O)Nc3ccc4c(c3)OCO4)c3ccccc3n2)cc(OC)c1OC | 12.4%
Cc1ccc(NC(=O)CCCN2C(=O)c3cccc4cccc(c34)C2=O)cc1 | 6.07%
CCOc1cc(C(=S)N2CCOCC2)ccc1OC(=O)/C=C/c1ccc(OC)c(OC)c1 | 9.97%
COC(=O)c1ccc(-c2nc(-c3ccc(Br)o3)no2)cc1 | 7.31%
CCCCC(c1nnnn1CC1CCCO1)N1CCN(c2cccc(C)c2C)CC1.Cl (stereo not drawn) | 3.38%
O=C(COc1ccc(NC(=O)c2ccccc2)cc1)c1ccccc1 | 9.93%
CCCNC(=O)C1(CC2CC(c3ccccc3)=NO2)CCN(C(=O)CCCCCBr)CC1 (stereo not drawn) | -5.35%
O=C(CCSCCc1ccccn1)Nc1c(F)c(F)c(F)c(F)c1F | 8.61%
N#CC1=C(N)Oc2c(ccc3ccccc23)C1c1ccsc1 (stereo not drawn) | 10.7%
COc1ccc(NC(=O)Cc2nnc(SCC(=O)Nc3cc(C)ccc3OC)n2C)cc1 | 8.46%
NC1=NC(=O)C2(COC(c3ccncc3)OC2)S1 (stereo not drawn) | 17.1%
CCOC(=O)C1(CCCc2ccccc2)CCN(C(=O)c2ocnc2C)CC1 | -14.9%
COc1ccc(OCc2ccc(C(=O)N3CCOCC3)cc2)cc1 | 11.3%
O=C(CSc1ccc2nnc(CCNC(=O)c3ccccc3)n2n1)Nc1ccc(F)cc1F | 9.08%
O=C1NC(=S)N/C1=C/c1cc([N+](=O)[O-])ccc1O | 13.2%
COc1ccc(C(C)=O)cc1CSc1nnc(-c2ccncc2)n1C | 25.1%
CCOC(=O)c1ccccc1NC(=O)c1cn(-c2ccc(C)c(C)c2)c(=O)c2ccccc12 | -6.46%
CCN(CC(=O)Nc1ccc(N2CCOCC2)cc1)C(=O)COc1ccccc1OC | 10.8%
Cc1[nH]c2ccccc2c1/C=N/NC(=O)c1cc(-c2ccccc2)n[nH]1 | 15.9%
COc1ccc(OCCCC(=O)N2CCN(S(=O)(=O)c3cccc(F)c3)CC2)cc1 | -1.89%

Compound | hERG current change (%, negative = inhibition) at 1uM
CCn1ncc(Br)c1C(=O)NC1CCCCCCC1 | 10.7%
CCN(CC)C(=O)C1CC(=O)OC1(C)C (stereo not drawn) | 5.73%
O=C(NCC1CCCO1)c1nn2c(C(F)(F)F)cc(-c3cc(Br)cs3)nc2c1Br (stereo not drawn) | 8.99%
COC(=O)c1ccc(CN(Cc2ccc(C(=O)OC)o2)C(C)(C)C)o1.Cl | -10.3%
COc1ccc(/C(O)=C2/C(=O)C(=O)N(CCCC(=O)O)C2c2ccc(OC)c(OC)c2)cc1 (stereo not drawn) | 12.8%
COc1ccc(OC)c(NC(=O)c2cnn(-c3ccccc3Cl)c2NC(=O)c2ccco2)c1 | -6.26%
CCC(=O)NCCc1cc2cc(C)c(C)cc2[nH]c1=O | 9%
Cc1ccc(NC(=O)C2C3/C=C\CCCCC32)cc1C (stereo not drawn) | 13%
N#CC(C#N)=Cc1cnc(N2CCN(c3ccccc3)CC2)s1 | 18.9%
CC/C(C)=C1\SC(N2CCN(c3cccc(C(F)(F)F)c3)CC2)=NC1=O | -6.41%
N#Cc1c(NC(=O)CSc2nc3ccccc3c(=O)n2Cc2ccco2)sc2c1CCCC2 | 15.4%
COc1ccccc1-c1noc(-c2ccccc2C(=O)N2CCOCC2)n1 | 1.87%
O=S(=O)(NCCc1nnc2ccc(SCc3cccnc3)nn12)c1ccccc1 | 9.44%
Cc1ccc(OCC(=O)N2CCN(C)CC2)c(Br)c1 | -0.058%
Cc1nn(Cc2ccccc2)c(C)c1C(=O)N1CCN(CC(=O)Nc2ccc(F)cc2)CC1 | -9.32%
Cc1ccc(NC(=O)CNC(=O)c2ccc(Br)o2)nc1 | 7.17%
O=C1NC(c2ccccc2)(C(F)(F)F)SC2=NCCCN12 (stereo not drawn) | 13.1%
COc1ccc(NC(=O)C2CCN(S(C)(=O)=O)CC2)c(OC)c1 | 16.2%
O=C(COC(=O)c1ccccc1C(=O)c1ccccc1)NCc1ccc(F)cc1 | 3.61%
COc1ccc(CC(=O)Nc2ccc(S(=O)(=O)NCC3CCCO3)cc2)cc1 (stereo not drawn) | 12.7%
CCc1ccc(C2=NN(C(=O)OC)C(O)(C(F)(F)F)C2)cc1 (stereo not drawn) | 0.622%
COc1ccc(C(=O)NCCS(=O)(=O)NC2CCCC2)cc1 | 13.9%

Compound | hERG current change (%, negative = inhibition) at 1uM
CCn1cc(C(=O)N2CCCC2)c(=O)c2cc(S(=O)(=O)N3CCC(C)CC3)ccc21 | 9.42%
O=C1CSC(=S)N1c1ccc(Cl)c(Cl)c1 | 13.7%
Cn1c(=O)c2c(ncn2CC(=O)OCC(=O)NCc2ccc(Cl)cc2)n(C)c1=O | 1.07%
O=C(O)CCCN1C(=O)c2ccc(Oc3cccc([N+](=O)[O-])c3)cc2C1=O | 18.2%
O=C(NCc1ccccc1)c1c(O)c2ccccc2[nH]c1=O | 17.1%
CCOC(=O)c1ccccc1NC(=O)COC(=O)c1c(CC)noc1C | 7.65%
CCCCNC(=S)N(Cc1c(C)noc1C)c1ccccc1 | 5.46%
Nc1c(Cl)ncnc1N/N=C/c1ccc(O)cc1 | 14.9%
COc1ccc(CNC(=O)COC(=O)/C=C/c2ccc(Cl)cc2)cc1 | 10.7%
COc1ccc(C(=O)Nc2c(N)nc(SCC(=O)NCC3CCCO3)[nH]c2=O)cc1 (stereo not drawn) | 11.4%
O=C(c1ccccc1NS(=O)(=O)c1ccc(Br)s1)N1CCCC1 | -1.68%
CCOC(=O)C1=C(CC)OC(N)=C(C#N)C1c1ccc(F)cc1F (stereo not drawn) | 9.97%
Cn1c(NC(=O)c2ccccc2F)cc(=O)n(C)c1=O | 6.23%
CCOC(=O)c1nnn(CC(=O)Nc2ccccc2)c1C(=O)OCC | 15.2%
COc1ccccc1OCc1ccc(C(=O)Nc2ccccc2)cc1 | 6.59%
O=C(Nc1ccc(Nc2ccccc2)cc1)c1ccc(Cl)cc1 | 0.661%
CC(NC(=O)c1ccccc1)c1ccc(F)cc1 (stereo not drawn) | 12.2%
O=C1CC(SC(=Nc2ccccc2)Nc2ccccc2)C(=O)N1c1ccc(Cl)c(Cl)c1 (stereo not drawn) | 7%
Cc1cc2c(NC(=O)CC(C)(C)CC(=O)O)cccc2nn1 | 9.06%
O=C(NCCc1c[nH]c2ccccc12)C(=O)Nc1cc2c3c(c1)CC(=O)N3CCC2 | 7.54%
COc1ccc(CCNC(=O)C(=O)Nc2ccc3nc4n(c(=O)c3c2)CCCCC4)cc1OC | 4.3%

Source: publication PMC4336329 (PLoS ONE, 2015)
